Reference: paper PMC3217859
Results are given in words; binding and its absence hold for the method and conditions named. Binding seen in cells or lysates may run through a third protein. Some results given as binding are weak or reduced against the parent protein; the word gives no strength. Tags and fused reporters may be left off the sequences shown.

The chains behind the UniProt entries cited, without tags or fusion partners.
UniProt Q9P289: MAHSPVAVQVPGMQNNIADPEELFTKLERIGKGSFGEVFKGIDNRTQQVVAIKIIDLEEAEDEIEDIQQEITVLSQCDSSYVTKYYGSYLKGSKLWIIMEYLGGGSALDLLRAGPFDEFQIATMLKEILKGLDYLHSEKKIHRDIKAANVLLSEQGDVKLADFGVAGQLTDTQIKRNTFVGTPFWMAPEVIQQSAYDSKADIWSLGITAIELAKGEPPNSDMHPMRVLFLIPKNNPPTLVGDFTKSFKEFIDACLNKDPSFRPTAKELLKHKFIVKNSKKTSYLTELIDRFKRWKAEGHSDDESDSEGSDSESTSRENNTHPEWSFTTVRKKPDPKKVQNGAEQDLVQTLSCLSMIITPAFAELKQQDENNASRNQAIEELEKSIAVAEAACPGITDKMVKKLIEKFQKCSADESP

Target: T1, HA-tagged wild-type striatin (human) (UniProt O43815)
T1 sequence: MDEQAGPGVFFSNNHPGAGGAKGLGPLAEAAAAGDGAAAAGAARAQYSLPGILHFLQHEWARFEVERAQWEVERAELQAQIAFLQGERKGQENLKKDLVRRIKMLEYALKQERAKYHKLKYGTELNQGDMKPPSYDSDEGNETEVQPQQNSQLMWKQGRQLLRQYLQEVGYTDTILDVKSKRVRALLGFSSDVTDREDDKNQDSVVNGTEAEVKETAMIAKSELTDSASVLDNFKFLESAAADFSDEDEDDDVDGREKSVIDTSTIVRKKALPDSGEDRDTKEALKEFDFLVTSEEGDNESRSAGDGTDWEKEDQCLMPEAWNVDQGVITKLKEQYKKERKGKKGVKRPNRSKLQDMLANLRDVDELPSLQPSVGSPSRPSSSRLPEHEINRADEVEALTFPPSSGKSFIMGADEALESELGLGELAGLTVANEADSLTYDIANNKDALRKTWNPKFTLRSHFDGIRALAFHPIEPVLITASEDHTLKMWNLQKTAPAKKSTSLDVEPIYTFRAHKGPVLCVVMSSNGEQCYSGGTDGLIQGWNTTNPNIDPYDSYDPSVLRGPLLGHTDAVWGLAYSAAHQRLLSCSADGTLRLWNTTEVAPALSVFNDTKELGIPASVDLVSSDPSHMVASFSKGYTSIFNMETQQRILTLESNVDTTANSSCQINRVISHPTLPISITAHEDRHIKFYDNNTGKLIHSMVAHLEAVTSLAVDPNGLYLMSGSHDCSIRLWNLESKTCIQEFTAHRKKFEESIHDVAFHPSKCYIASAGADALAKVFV
Assay: co-IP; anti-HA immunoprecipitates (12CA5 with protein A-Sepharose, or F7 anti-HA-agarose when probing for Mst3 or Mst4; 1.5 h, 4°C) of lysates (1% Nonidet P-40, 0.135 M NaCl, 10% glycerol, 20 mM Tris pH 8.0) of HEK293 cells transfected with HA-striatins; endogenous partners by immunoblot, partner/HA-striatin ratio by chemilumimager against wild type; 50 mM NaF and 100 nM okadaic acid in the lysis buffer in the phosphorylation experiments

## Mst4 kinase (from UniProt Q9P289 1-416) (enzyme)
  binding: binds
